# Measurements published in the supplement of paper PMC4967469.
# Columns and labels:
# Test in all cases: Viability of human cancer cell lines after 72 h of drug (GDSC screen)
# Paclitaxel = compound: CC(=O)O[C@H]1C(=O)[C@@]2(C)[C@H]([C@H](OC(=O)c3ccccc3)[C@]3(O)C[C@H](OC(=O)[C@H](O)[C@@H](NC(=O)c4ccccc4)c4ccccc4)C(C)=C1C3(C)C)[C@]1(OC(C)=O)CO[C@@H]1C[C@@H]2O [Paclitaxel]; settings: top dose 0.1024 µM
# Procedure: (§1)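 Human cancer cell lines in 384-well plates, medium with 10% serum, drug for 72 h over a 256-fold dose range (nine 2-fold or five 4-fold steps up to the top dose). Adherent lines were fixed and stained with the nucleic acid dye Syto60, suspension lines read with resazurin; signal relative to control wells, capped at 0 and 100%. One two-parameter sigmoid per drug and line, fitted in a mixed model over all curves with the slope shared within a line.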
# Bortezomib = compound: CC(C)C[C@H](NC(=O)[C@H](Cc1ccccc1)NC(=O)c1cnccn1)B(O)O [Bortezomib]; settings: top dose 0.02 µM
# Procedure: as §1
# Obatoclax mesylate = compound: COC1=CC(c2cc3ccccc3[nH]2)=N/C1=C\c1[nH]c(C)cc1C [Obatoclax mesylate]; settings: top dose 16 µM
# Procedure: as §1
# CP724714 = compound: COCC(=O)NC/C=C/c1ccc2ncnc(Nc3ccc(Oc4ccc(C)nc4)c(C)c3)c2c1 [CP724714]; settings: top dose 10.24 µM; top dose inferred
# Procedure: as §1
# STF-62247 = compound: Cc1cccc(Nc2nc(-c3ccncc3)cs2)c1 [STF-62247]; settings: top dose 10.24 µM; top dose inferred
# Procedure: as §1
# CX-5461 = compound: Cc1cnc(CNC(=O)c2c(=O)c3ccc(N4CCCN(C)CC4)nc3n3c2sc2ccccc23)cn1 [CX-5461]; settings: top dose 10.24 µM; top dose inferred
# Procedure: as §1
Cell Line,AUC (Paclitaxel),IC50 (Paclitaxel) [µM],AUC (Bortezomib),IC50 (Bortezomib) [µM],AUC (Obatoclax mesylate),IC50 (Obatoclax mesylate) [µM],AUC (CP724714),IC50 (CP724714) [µM],AUC (STF-62247),IC50 (STF-62247) [µM],AUC (CX-5461),IC50 (CX-5461) [µM]
"MZ2-MEL (melanoma, adherent)",0.742,0.036,0.354,0.000457,0.105,< 0.0625,0.957,> 10.2,0.982,> 10.2,0.905,> 10.2
"MZ7-mel (melanoma, adherent)",0.676,0.0202,0.491,0.00118,0.128,< 0.0625,0.978,> 10.2,0.972,> 10.2,0.935,> 10.2
"Mo-T (hairy cell leukaemia, suspension)",0.987,> 0.102,0.674,0.00385,0.583,1.69,0.918,> 10.2,0.969,> 10.2,0.788,4.61
"NALM-6 (B-cell leukaemia, suspension)",0.557,0.00891,0.641,0.00285,0.042,< 0.0625,0.957,> 10.2,0.85,5.92,0.349,0.264
"NB1 (neuroblastoma, semi-adherent)",0.691,0.0233,0.762,0.00788,0.391,0.486,0.903,> 10.2,0.91,> 10.2,0.596,1.2
"NB5 (neuroblastoma, adherent)",0.924,> 0.102,0.591,0.00222,0.539,1.28,0.964,> 10.2,0.986,> 10.2,0.735,3.04
"NB6 (neuroblastoma, adherent)",0.881,> 0.102,0.779,0.0102,0.624,2.39,0.972,> 10.2,0.983,> 10.2,0.908,> 10.2
"NB7 (neuroblastoma, adherent)",0.98,> 0.102,0.734,0.00603,0.443,0.696,0.803,5.33,0.973,> 10.2,0.846,7.95
"NB10 (neuroblastoma, adherent)",0.988,> 0.102,0.648,0.00318,0.642,2.44,0.982,> 10.2,0.988,> 10.2,0.925,> 10.2
"NB13 (neuroblastoma, adherent)",0.453,0.00484,0.459,0.00098,0.17,0.117,0.99,> 10.2,0.99,> 10.2,0.65,1.58
"NB14 (neuroblastoma, adherent)",0.986,> 0.102,0.761,0.00672,0.327,0.341,0.988,> 10.2,0.988,> 10.2,0.989,> 10.2
"NB69 (neuroblastoma, adherent)",0.873,0.0799,0.557,0.00175,0.111,0.0683,0.984,> 10.2,0.976,> 10.2,0.748,2.97
"NB(TU)1-10 (neuroblastoma, adherent)",0.979,> 0.102,0.629,0.00269,0.157,0.11,0.985,> 10.2,0.993,> 10.2,0.571,0.972
"NCI-H64 (small cell lung carcinoma, suspension)",0.694,0.019,0.58,0.00195,0.11,0.0976,0.981,> 10.2,0.943,> 10.2,0.996,> 10.2
"NCI-H211 (small cell lung carcinoma, adherent)",0.523,0.00737,0.841,0.0133,0.157,0.0917,0.962,> 10.2,0.979,> 10.2,0.682,2.03
"NCI-H322M (lung adenocarcinoma, suspension)",0.976,> 0.102,0.926,> 0.02,0.986,> 16,0.975,> 10.2,0.972,> 10.2,0.95,> 10.2
"NCI-H345 (small cell lung carcinoma, suspension)",0.871,> 0.102,0.794,0.00978,0.844,12.3,0.99,> 10.2,0.99,> 10.2,0.922,> 10.2
"NCI-H510A (small cell lung carcinoma, semi-adherent)",0.471,0.00536,0.617,0.00255,0.567,1.5,0.987,> 10.2,0.978,> 10.2,0.669,1.81
"NCI-H524 (small cell lung carcinoma, suspension)",0.564,0.00936,0.829,0.0107,0.828,8.51,0.986,> 10.2,0.987,> 10.2,0.99,> 10.2
"NCI-H716 (large intestine, suspension)",0.979,> 0.102,0.906,> 0.02,0.589,1.86,0.975,> 10.2,0.947,> 10.2,0.891,> 10.2

# A lower IC50 marks a more sensitive line; where the fit passes the top or lowest dose, that dose stands as a limit. AUC sums up the same curve from the lowest dose to the 256-fold higher top dose: 1 means no effect, lower means more sensitive. For part of these data: A top dose marked as inferred is not printed in the source and was worked back from the curve model.
